Measured values published in PubChem BioAssay AID686978 (National Center for Advancing Translational Sciences (NCATS), 2013).
Several values for one entry are separate records, joined by “and”; a condition that tells them apart may be missing. Equal entries are not always repeated. The campaign covered roughly 420,000 compounds. About 64,000 (15%) were called active. The shares of active, inactive and inconclusive entries below differ from those in the screen. Calls come from the whole dose curve; as a rule, active = well fitted inhibition curve with a large enough effect; inconclusive = small, poorly fitted or top-dose-only effect; inactive = flat fitted curve, though single readings scatter. No potency is given beside an inconclusive call; the fits are too rough.
% is set by controls: 0 for no effect and ±100 for the full control effect; potency is the fitted concentration of half-maximal effect; tags give direction and shape of the fitted curve.

Assay: qHTS for Inhibitors of human tyrosyl-DNA phosphodiesterase 1 (TDP1): qHTS in cells in absence of CPT; note: nearly all actives have a fitted effect of over 55% in size
Conditions: DT40 Tdp1-/- hTDP1 cells, no CPT, ATP luminescence, 48 h; activity change, negative = growth inhibition: at 46.2 µM (top of the series) unless noted
Method in brief: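 Camptothecin absent (DMSO only). Human TDP1-complemented DT40 knockout cells, 400 cells/well, 37 °C for minimum 48 hr; ATP measured via CellTiter-Glo, 30 min dark incubation, luminescence.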
With `O=C(CCc1ccccc1)Nc1ccc(NC(=O)C2CCCCC2)nc1` the Potency was inconclusive [inhibitor, single point]. With `COc1cccc(CNC(=O)C2CCN(C(=O)N3CC(C)Oc4ccccc43)CC2)c1` (configuration not stated) the Potency was inconclusive [inhibitor, single point]. For `CCCCNC(=O)c1cnc2c(-c3ccc(OCC)c(OCC)c3)c(C)nn2c1-c1ccccc1`, the “activity change, negative = growth inhibition” value was inactive: -29.6%. With `Cc1cccc(OCC(=O)Nc2ccc(C(=O)Nc3ccccc3C(=O)O)cc2)c1` the Potency was inconclusive [inhibitor, single point]. With `CCc1ccc2nc(N3CCC(C(=O)NCCC(C)C)CC3)sc2c1` the Potency was inconclusive [inhibitor, single point]. In the case of `CCN(Cc1ccccc1)S(=O)(=O)c1ccc(N2CCCCS2(=O)=O)cc1`, the Potency is reported as inconclusive [inhibitor, single point]. For `COC(=O)c1ccc(OCC(=O)N2CCCc3ccccc32)cc1`, the “activity change, negative = growth inhibition” value was inactive: -30%. For `O=C(Nc1ccc(C(=O)N2CCCC2)cc1)c1ccccc1`, the Potency was inconclusive [inhibitor, single point]. In the case of `CCc1nc2ccc(C(=O)NCCCn3ccnc3)cn2c1N(C)Cc1cccs1`, the Potency is reported as inconclusive [inhibitor, single point]. For `COC(=O)C1CCN(C(=O)Cc2c(OC)ccc3cc(Br)ccc23)CC1`, the Potency was inconclusive [inhibitor, partial curve, poor fit]. In the case of `COc1ccc(-c2nc3ccc(C(=O)NCC(OC)OC)cc3nc2-c2ccc(OC)c(OC)c2)cc1OC`, the Potency is reported as inconclusive [inhibitor, partial curve]. For `CCOC(=O)C1CCN(C(=O)c2cccc(NS(=O)(=O)c3ccc(F)c(F)c3)c2)CC1`, the “activity change, negative = growth inhibition” value was inactive: -11.6%. With `CCN1C(=O)[C@H]2[C@@H](c3ccc(-c4ccc(Cl)c(Cl)c4)cc3)N3CCCC[C@@]3(C(=O)OC)[C@H]2C1=O` the Potency was active: 6.51 µM. For `CCC(c1nnnn1Cc1ccc(F)cc1)N1CCN(C2CCCCC2)CC1` (configuration not stated), the Potency was inconclusive [inhibitor, partial curve]. With `Cc1cc(N2CCCCC2)nc2ccc(NC(=O)c3ccc(F)cc3)cc12` the Potency was active: 14.6 µM. With `NC(=O)C1CC=CCC1C(=O)OCC(Cl)=C(Cl)Cl` (configuration not stated) the “activity change, negative = growth inhibition” value was inactive: 4.67%. With `Cc1cc(=O)[nH]c(-c2ccc(C(F)(F)F)cc2)n1` the Potency was inconclusive [inhibitor, partial curve]. For `Cc1cccc(CC(=O)NC2CC(=O)N(c3cccc(F)c3)C2)c1` (configuration not stated), the “activity change, negative = growth inhibition” value was inactive: -28.3%. With `CCN(CC(=O)Nc1cccc(OC)c1)CC(=O)Nc1ccc(Br)c(C)c1` the “activity change, negative = growth inhibition” value was inactive: -5.97%. For `CCOC(=O)c1c(NC(=O)CSc2cn(CCNC(=O)c3ccc(OCC)cc3)c3ccccc23)sc2c1CCCC2`, the “activity change, negative = growth inhibition” value was inactive: -28.5%. For `Cc1ccc(-c2nc3ccc(Cl)cc3c(=O)n2O)cc1`, the Potency was active: 16.4 µM. With `Nc1nc(=S)c2[nH]cnc2[nH]1` the Potency was active: 1.88 µM and active: 1.16 µM and active: 1.84 µM. For `O=C(c1ccco1)N1CCN(c2ncnc3sc4c(c23)CCC4)CC1`, the Potency was active: 20 µM. In the case of `c1cc(-c2ccc(N3CCOCC3)cc2)n2ccnc2c1`, the Potency is reported as inconclusive [inhibitor, single point]. In the case of `CC(CNC(=O)Cn1ncc2c3ccccc3n(Cc3cccc(Cl)c3)c2c1=O)c1ccccc1` (configuration not stated), the Potency is reported as inconclusive [inhibitor, single point]. With `Cc1ccc(NC(=O)CNC(=O)c2sc3ccccc3c2Cl)nc1` the “activity change, negative = growth inhibition” value was inactive: -27.2%. In the case of `O=C(NC1CCCCC1)c1cc(C2CC2)nn1-c1ccccc1`, the Potency is reported as active: 16.4 µM. With `COCCNC(=O)CSc1nc(-c2ccc(F)cc2)[nH]c1-c1ccc(Cl)cc1` the Potency was active: 25.9 µM. With `C=CCNc1nc(-c2ccccn2)nnc1-c1ccccc1` the Potency was inconclusive [inhibitor, single point]. With `COc1ccc(C(C(N)=O)c2ncc(C(F)(F)F)cc2Cl)cc1` (configuration not stated) the Potency was inconclusive [inhibitor, single point]. With `CC(C)(C)NC(=O)C(c1ccccc1F)n1c(=O)c(-c2ccco2)nc2ccccc21` (configuration not stated) the Potency was inconclusive [inhibitor, single point]. With `CN(C(=O)CSc1nc2ncccc2o1)c1ccc(F)cc1` the “activity change, negative = growth inhibition” value was inactive: -21.6%. For `O=C(Nc1cccc(C(F)(F)F)c1)c1csc(-c2ccncc2)n1`, the Potency was inconclusive [inhibitor, single point]. For `COc1ccc(S(=O)(=O)N2CCOC2CNC(=O)C(=O)NCC(C)C)cc1` (configuration not stated), the “activity change, negative = growth inhibition” value was inactive: -21.7%. In the case of `Nc1ccccc1Nc1cc(-c2ccccc2)nn1-c1cccc(Cl)c1`, the Potency is reported as inconclusive [inhibitor, single point]. With `O=C(COc1ccccc1)OCC(=O)c1ccc(S(=O)(=O)N2CCCCC2)cc1` the “activity change, negative = growth inhibition” value was inactive: -0.572%. With `O=C(OCC(=O)N1CCc2ccccc2C1)c1cccc([N+](=O)[O-])c1` the “activity change, negative = growth inhibition” value was inactive: -27.1%. In the case of `COc1ccccc1N1CCN(S(=O)(=O)c2ccc(-c3cc(C(F)(F)F)on3)s2)CC1`, the Potency is reported as inconclusive [inhibitor, single point]. For `C/C=C/C=C(/NC(=O)c1ccccc1)C(=O)Nc1ccccc1`, the “activity change, negative = growth inhibition” value was inactive: 23.3%. For `CNS(=O)(=O)c1cn(CC(=O)Nc2ccc(OC)c(Cl)c2)cc1S(=O)(=O)NC`, the “activity change, negative = growth inhibition” value was inactive: -8.71%. For `Cc1ccc(N(C)S(=O)(=O)c2cccc(C(=O)NC3=NCCS3)c2)cc1`, the Potency was inconclusive [inhibitor, single point]. With `Cc1noc(C)c1C(c1ccccc1)c1ccccc1` the Potency was inconclusive [inhibitor, full curve, poor fit]. With `COc1ccc(NC(=S)NN2CCOCC2)cc1OC` the “activity change, negative = growth inhibition” value was inactive: 1.5%. With `COc1ccc(C2C(=O)NN=C2C)cc1` (configuration not stated) the activity change, negative = growth inhibition was inconclusive: -38.8% [inhibitor]. With `CCOc1ccc(Nc2nc(-c3sc(N)nc3C)cs2)cc1` the Potency was inconclusive [inhibitor, single point]. For `COC(=O)Cn1c(=NC(=O)CSC(C)=O)sc2ccccc21`, the Potency was inconclusive [inhibitor, single point]. With `COc1ccc(CCCNC(=O)C2Cc3c(-c4ccc5c(c4)OCO5)ccnc3O2)cc1` (configuration not stated) the Potency was inconclusive [inhibitor, single point].
